Assay results as given in PubChem BioAssay AID504332 (National Center for Advancing Translational Sciences (NCATS), 2011).
Hit rate of the full screen: of about 350,000 compounds, about 31,000 (8.9%) were called active. The shares of active, inactive and inconclusive entries below differ from those in the screen. The call rests on the fitted dose curve; in most records, active means well fitted inhibition curve with a large enough effect; inconclusive means small, poorly fitted or top-dose-only effect; inactive means no such curve, though single readings can be large or run the other way. Where the call is inconclusive, the potency comes from a doubtful curve fit.

target: Histone-lysine N-methyltransferase EHMT2 (Homo sapiens) (UniProt Q96KQ7); assay: qHTS Assay for Inhibitors of Histone Lysine Methyltransferase G9a; conditions: G9a H3K9 monomethylation, AlphaScreen, 2 h; activity, negative = inhibition: at 59 µM (top of the series) unless noted; further: nearly all actives have a fitted effect of over 75% in size
How it was run: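 Step 1: enzyme (final 20 nM) with compound, 15 min RT. Step 2: substrate peptide 500 nM and SAM 20 uM, 2 h RT. Step 3: anti-H3K9me1 antibody and AlphaScreen beads, 10 min, then plate read.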
On the % scale 0 is the no-effect control and ±100 the full control effect; potency means the concentration at half of the fitted maximal effect; tags describe the fitted curve by direction and shape.

Sequence of UniProt Q96KQ7 (Q96KQ7 whole entry, looked up): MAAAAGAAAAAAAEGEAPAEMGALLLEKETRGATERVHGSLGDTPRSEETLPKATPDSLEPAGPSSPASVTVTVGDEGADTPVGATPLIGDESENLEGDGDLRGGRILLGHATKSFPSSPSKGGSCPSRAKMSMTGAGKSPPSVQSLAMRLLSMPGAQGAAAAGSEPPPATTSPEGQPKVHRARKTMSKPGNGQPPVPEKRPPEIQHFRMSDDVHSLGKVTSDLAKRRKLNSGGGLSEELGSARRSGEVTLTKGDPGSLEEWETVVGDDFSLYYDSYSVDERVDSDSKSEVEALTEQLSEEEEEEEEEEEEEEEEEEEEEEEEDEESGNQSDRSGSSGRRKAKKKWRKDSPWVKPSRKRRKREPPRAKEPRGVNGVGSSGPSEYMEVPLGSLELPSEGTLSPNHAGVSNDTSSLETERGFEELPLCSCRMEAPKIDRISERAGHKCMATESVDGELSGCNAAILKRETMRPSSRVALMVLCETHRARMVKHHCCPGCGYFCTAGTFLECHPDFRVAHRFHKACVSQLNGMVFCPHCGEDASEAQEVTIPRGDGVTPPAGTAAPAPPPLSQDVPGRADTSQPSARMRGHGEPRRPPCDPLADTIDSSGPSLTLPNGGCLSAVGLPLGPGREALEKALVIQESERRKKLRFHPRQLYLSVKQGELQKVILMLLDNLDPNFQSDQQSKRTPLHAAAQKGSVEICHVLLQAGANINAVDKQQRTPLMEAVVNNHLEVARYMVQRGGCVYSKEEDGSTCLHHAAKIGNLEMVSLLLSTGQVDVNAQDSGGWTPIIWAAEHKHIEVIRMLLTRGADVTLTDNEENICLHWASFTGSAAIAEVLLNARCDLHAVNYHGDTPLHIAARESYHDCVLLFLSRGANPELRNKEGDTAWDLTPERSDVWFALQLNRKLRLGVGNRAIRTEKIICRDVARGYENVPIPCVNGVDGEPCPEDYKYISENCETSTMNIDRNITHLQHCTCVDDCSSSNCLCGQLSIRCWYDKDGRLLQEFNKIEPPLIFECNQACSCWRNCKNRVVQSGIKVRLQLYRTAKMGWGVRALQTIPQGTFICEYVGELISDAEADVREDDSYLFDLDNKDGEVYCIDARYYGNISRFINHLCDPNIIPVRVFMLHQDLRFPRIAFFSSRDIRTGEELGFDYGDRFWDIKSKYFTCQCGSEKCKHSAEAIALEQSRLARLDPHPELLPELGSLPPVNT

Compound | Potency | activity, negative = inhibition
COC(=O)c1ccc(Cl)c(NC(=O)CN2CCN(Cc3ccccc3)CC2)c1 | active: 11.2 µM | –
C/C(=C/CCC(C)[C@H]1CC[C@@]2(C)C3=C(CC[C@]12C)[C@@]1(C)CCC(=O)C(C)(C)[C@@H]1CC3)C(=O)O (stereo not given in full) | inconclusive: 79.4 µM [inhibitor, single point] | –
O=[N+]([O-])/C=C/c1c(OCc2ccccc2)ccc2ccccc12 | inconclusive: 7.94 µM [inhibitor, full curve] | –
C=CCN1C(=O)NC(=O)/C(=C/c2cc3c4c(c2)CCCN4CCC3)C1=O | inconclusive: 28.2 µM [inhibitor, partial curve, poor fit] | –
CCCCn1c(O)c(/C=C/C=Nc2ccccc2)c(=O)[nH]c1=O | inconclusive: 70.8 µM [inhibitor, single point] | –
COc1ccc(CN2CCN(Cc3ccccc3OC)CC2)cc1 | active: 2 µM | –
O=C1NCN(c2ccccc2)C12CCNCC2 | inconclusive: 89.1 µM [inhibitor, partial curve, poor fit] | –
COc1ccc(-n2c(O)c(C(C)=NCCN3CCNCC3)c(=O)[nH]c2=O)cc1 | inconclusive: 79.4 µM [inhibitor, single point] | –
O=C(Nc1ccc2c(c1)OCO2)N1CCN(c2ccccc2)CC1 | inconclusive: 31.6 µM [inhibitor, partial curve, poor fit] | –
COc1ccc(C(C)=O)cc1COc1ncnc2ccccc12 | inconclusive: 44.7 µM [inhibitor, partial curve, poor fit] | –
O=c1[nH]c(=S)n(-c2ccc(Br)cc2)c(O)c1C=Nc1ccc(N2CCOCC2)cc1 | inconclusive: 20 µM [inhibitor, partial curve, poor fit] | –
CCC(=Nc1ccccc1N)c1c(O)[nH]c(=O)[nH]c1=O | inconclusive: 89.1 µM [inhibitor, single point] | –
OC(CN1CC=C(c2ccccc2)CC1)c1ccccc1 (stereo not given) | inconclusive: 89.1 µM [inhibitor, partial curve, poor fit] | –
COc1ccc2ccc(O)c(CN3CC=C(c4ccccc4)CC3)c2c1 | inconclusive: 50.1 µM [inhibitor, partial curve, poor fit] | –
CN1C(=O)/C(=C/C=C/c2ccco2)C(=O)NC1=S | active: 2.82 µM | –
CC(CO)(CO)N=Cc1c(O)n(-c2cccc3ccccc23)c(=O)[nH]c1=O | – | inactive: -29.7%
COc1cccc(N2C(=O)NC(=O)/C(=C\c3cn(C)c4ccccc34)C2=O)c1 | – | inactive: -16.1% [at 102 µM]
CCOC(=O)Cn1c(=O)oc2cc(S(=O)(=O)NC3CCCc4ccccc43)ccc21 (stereo not given) | inconclusive: 89.1 µM [inhibitor, single point] | –
Cc1ccc(C)c(N2CCN(C(=O)C3CCCN(S(=O)(=O)c4cccc5nsnc45)C3)CC2)c1 (stereo not given) | inconclusive: 7.08 µM [inhibitor, partial curve] | –
C/C=C(\C)CN1CCN(c2ccccc2F)CC1 | inconclusive: 14.1 µM [inhibitor, single point] | –
CC(Cc1ccccc1)/[N+]([O-])=C\c1ccc(C(F)(F)F)cc1 (stereo not given) | – | inactive: 4.07% [at 2.33 µM]
NC(=NCc1ccc(Cl)cc1)SCCCc1cnc[nH]1 | – | inactive: 46.4%
CCCCNS(=O)(=O)c1ccc(OCC(=O)N2CCN(Cc3ccc4c(c3)OCO4)CC2)cc1 | inconclusive: 39.8 µM [inhibitor, partial curve, poor fit] | –
O=C(Nc1ccc(Cl)cc1)O/N=C(\c1ccccc1)c1ccccn1 | inconclusive: 1.12 µM [inhibitor, full curve, poor fit] | –

Compound | Potency | activity, negative = inhibition
O=C(CCC1CCCC1)c1c(O)c2ccccc2oc1=O | inconclusive: 89.1 µM [inhibitor, single point] | –
Cn1ccnc1P(=S)(c1nccn1C)c1nccn1C | active: 3.55 µM | –
COc1cccc(N2C(=O)NC(=O)C3(Cc4cc(C)ccc4N(C)C3)C2=O)c1 (stereo not given) | active: 2.82 µM | –
CC1CCCC(NC(=O)COC(=O)c2cn(C)c3ccccc23)C1C (stereo not given) | – | inactive: 20.8% [at 12.7 µM]
C=CCN1CCC2(C)c3cc(O)ccc3CC1[C@@H]2C (stereo not given in full) | – | inactive: 35.6%
Cc1cc(C)cc(-n2c(/C=C/c3cccc(F)c3)nc3ccccc3c2=O)c1 | – | inactive: 3.99%
COc1ccc(CCn2c(O)c(/C=N/N3CCCCC3)c(=O)[nH]c2=O)cc1OC | inconclusive: 10 µM [inhibitor, partial curve, poor fit] | –
CCCNC(=O)N1C2CCC1CC(O)(c1cccnc1)C2 (stereo not given) | inconclusive: 1 µM [inhibitor, single point] | –
CC1CCCCN1Cc1cccnc1 (stereo not given) | active: 6.31 µM | –
CN1CCN(c2ccc(N)c(N3CCN(C)CC3)c2)CC1 | inconclusive: 1.78 µM [inhibitor, partial curve, poor fit] | –
O=C1NC(=O)N(c2ccc(F)cc2)C(=O)/C1=C/c1ccc(N2CCOCC2)cc1 | active: 39.8 µM | –
O=C1NC(=O)C(=Cc2ccc(OCC(=O)N3CCOCC3)cc2)C(=O)N1 | inconclusive: 4.47 µM [inhibitor, partial curve, poor fit] | –
CNC(=O)OCCc1nccn1C | – | inactive: 7.11%
Fc1ccccc1N1CCN(Cc2c(F)cccc2F)CC1 | active: 1.41 µM | –
CCCCOc1ccc(CN2C(=O)C(=O)c3cc(C)ccc32)cc1OC | inconclusive: 2.51 µM [inhibitor, full curve, poor fit] | –
CCCCCSc1cc(OC)c(CCNC)cc1OC | inconclusive: 14.1 µM [inhibitor, partial curve, poor fit] | –
O=C1Nc2ccc(Cl)cc2C(c2ccccc2)=NC1O (stereo not given) | – | inactive: -13.2%
Cc1cc(C)cc(Nc2nc3ccc(C)cc3n3cnnc23)c1 | inconclusive: 1.41 µM [inhibitor, single point] | –
S=c1[nH]nc(-c2ccccc2)n1C1C=CCCC1 (stereo not given) | inconclusive: 8.91 µM [inhibitor, partial curve, poor fit] | –
CCCCC/C=C\C/C=C\C/C=C\C/C=C\CCCC(=O)NCc1ccoc1 | active: 14.1 µM | –
COc1ccc(CN2C(=O)NC(=O)/C(=C/c3ccoc3)C2=O)cc1 | active: 17.8 µM | –
COc1ccc(NC(=O)CN2C(=O)C(C)N=C(c3ccccc3F)c3cc(Cl)ccc32)c(OC)c1 (stereo not given) | – | inactive: -30.9%
Fc1cccc(F)c1CN1CCN(c2ccc(Cl)cc2)CC1 | – | inactive: 13.4% [at 102 µM]
Cc1cc(C=C2C(=O)N(C)C(=S)N(C)C2=O)c(C)n1-c1ccncc1 | active: 50.1 µM | –

Compound | Potency | activity, negative = inhibition
COc1cc2c(cc1OC)C(c1c(O)n(CCc3ccccc3)c(=S)[nH]c1=O)NCC2 (stereo not given) | inconclusive: 89.1 µM [inhibitor, partial curve, poor fit] | –
COc1nnc(-c2ccc(N3CCCCC3)c(NC(=O)c3ccc(Cl)cc3)c2)c2ccccc12 | inconclusive: 3.16 µM [inhibitor, full curve, poor fit] | –
CCN1CCN(Cc2cc(Br)cc(OC)c2O)CC1 | – | inconclusive: -66.1% [inhibitor]
COc1ccc2[nH]c(C)c(CCNCc3cc(OC)c(OC)c(OC)c3)c2c1 | active: 22.4 µM | –
CCCCCCC(=O)c1c(O)n(-c2ccc(OC)cc2)c(=O)[nH]c1=O (tested in a mixture with another compound) | inconclusive: 56.2 µM [inhibitor, partial curve, poor fit] | –
CCOc1ccc(Oc2nc(NCC(C)C)nc(N(C)C)n2)nn1 | inconclusive: 1.78 µM [inhibitor, partial curve, poor fit] | –
O=c1[nH]c(=O)n(Cc2ccccc2)c(O)c1C=Nc1ccc(CN2CCOCC2)cc1 | inconclusive: 79.4 µM [inhibitor, single point] | –
Cc1ccccc1C(=O)NNC(=S)NC(=O)COc1ccccc1 | active: 0.562 µM | –
CN[C@H](C)[C@H](O)c1ccccc1 | – | inactive: 0.996%
C=CCn1c(O)c(C(CC)=Nc2ccccc2NC(=O)CC)c(=O)[nH]c1=O | inconclusive: 79.4 µM [inhibitor, partial curve, poor fit] | –
COc1ccc(CNCCc2c[nH]c3ccccc23)cc1OC | inconclusive: 89.1 µM [inhibitor, single point] | –
O=c1cccc2n1CC1CC2CN(Cc2cccc(Cl)c2Cl)C1 (stereo not given) | inconclusive: 70.8 µM [inhibitor, partial curve, poor fit] | –
OCCNCCc1c[nH]c2ccc(OCc3ccccc3)cc12 | inconclusive: 89.1 µM [inhibitor, single point] | –
O=C1NC(=O)N(c2ccc(F)cc2)C(=O)/C1=C/c1ccc2c(c1)CCCN2Cc1ccccc1 | active: 12.6 µM | –
CCOC(=O)CNC(=O)CSP(=S)(OCC)OCC | inconclusive: 89.1 µM [inhibitor, single point] | –
O=c1[nH]c(=O)c2ccccc2o1 | inconclusive: 2.82 µM [inhibitor, partial curve, poor fit] | –
Cc1ccc(C2=[N+]([O-])C3(CCCCC3=O)N(O)C2(C)C)cc1 (stereo not given) | inconclusive: 1.78 µM [inhibitor, partial curve, poor fit] | –
CCN1CCc2ccccc2C1 | inconclusive: 44.7 µM [inhibitor, partial curve, poor fit] | –
COC(=O)c1cn(S(=O)(=O)c2ccccc2)c2ccccc12 | inconclusive: 0.891 µM [inhibitor, single point] | –
Oc1ccc(Br)cc1CN1CCN(c2ccccc2)CC1 | – | inactive: -20.1% [at 12.7 µM]
Cn1c(O)c(C=NCCCC(=O)O)c(=O)n(C)c1=O | – | inactive: -19.8% [at 102 µM]
CC(=O)n1cc(C=C2C(=O)NC(=O)NC2=O)c2ccccc21 | active: 10 µM | –
